# Measured values from the supplement of paper PMC12217912.
# This is one part of the list. The full chains were built here from the parent and the listed change. Values near 0.05 are background.
# B1: TEV protease; numbered along this chain (parent)
# chain: MGESLFKGPRDYNPISSSICHLTNESDGHTTSLYGIGFGPFIITNKHLFRRNNGTLVVQSLHGVFKVKDTTTLQQHLVDGRDMIIIRMPKDFPPFPQKLKFREPQREERICLVTTNFQTKSMSSMVSDTSCTFPSGDGIFWKHWIQTKDGQCGSPLVSTRDGFIVGIHSASNFTNTNNYFTSVPKNFMELLTNQEAQQWVSGWRLNADSVLWGGHKVFMVKPEEPFQPVKEATQL
# Variants of: B1
# Assay: raw area under fraction-flipped curve 0-4 h after induction (AUC4h, not background-subtracted), DNA-recorder readout of cleavage of the substrate (dimensionless); higher = more cleavage of the substrate by the protease variant
# Settings: temperature: 34 °C; time window: 0-4 h after rhamnose induction
# 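Note: Bxb1 expression induced with 0.2% (w/v) L-rhamnose at OD600 near 0.5, cultures sampled hourly, flipped fraction per protease–substrate barcode pair counted by paired-end Illumina sequencing.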
Variant,area with substrate ENCYFQS,area with substrate ENDYFQS,area with substrate ENFYFQS,area with substrate ENGYFQS,area with substrate ENHYFQS,area with substrate ENNYFQS,area with substrate ENPYFQS,area with substrate ENSYFQS,area with substrate ENTYFQS,area with substrate ENVYFQS,area with substrate ENEYFQS,area with substrate ENIYFQS,area with substrate ENMYFQS,area with substrate ENQYFQS,area with substrate ENWYFQS,area with substrate ENYYFQS,area with substrate ENRYFQS,area with substrate ENKYFQS
MGESLFKGPRDYNPISSSICHLTNESDGHTTSLYGIGFGPFIITNKHLFRRNNGTLVVQSLHGVFKVKDTTTLQQHLVDGRDMIIMRMPKDFPPFPQKLKFREPQREERICLVTTNFQTKSMSSMVSDTSCTFPSGDGIFWKHWIQTKDGQCGSPLVSTRDGFIVGIHSASNFTNTNNYFTSVPKNFMELLTNQEAQQWVSGWRLNADSVLWGGHKVFMVKPEEPFQPVKEATQL [I86M],0.0655,0.054,0.0651,0.0577,0.0628,0.0586,0.0471,0.0526,0.129,0.0568,,,,,,,,
MGESLFKGPRDYNPISSSICHLTNESDGHTTSLYGIGFGPFIITNKHLFRRNNGTLVVQSLHGVFKVKDTTTLQQHLVDGRDMIIHRMPKDFPPFPQKLKFREPQREERICLVTTNFQTKSMSSMVSDTSCTFPSGDGIFWKHWIQTKDGQCGSPLVSTRDGFIVGIHSASNFTNTNNYFTSVPKNFMELLTNQEAQQWVSGWRLNADSVLWGGHKVFMVKPEEPFQPVKEATQL [I86H],0.049,0.0428,,,,,,0.0376,0.034,0.0431,0.0342,0.0326,0.043,0.0114,,,,
MGESLFKGPRDYNPISSSICHLTNESDGHTTSLYGIGFGPFIITNKHLFRRNNGPLVVQSLHGVFKVKDTTTLQQHLVDGRDMIIIRMPKDFPPFPQKLKFREPQREERICLVTTNFQTKSMSSMVSDTSCTFPSGDGIFWKHWIQTKDGQCGSPLVSTRDGFIVGIHSASNFTNTNNYFTSVPKNFMELLTNQEAQQWVSGWRLNADSVLWGGHKVFMVKPEEPFQPVKEATQL [T55P],0.0463,0.0518,,,0.05,0.0573,0.0641,0.0511,0.0501,0.0557,0.0595,,,0.0605,0.0611,0.0458,,
MGESLFKGPRDYNPISSSICHLTNESDGHTTSLYFIGFGPFIITNKHLFRRNNGTLVVQSLHGVFKVKDTTTLQQHLVDGRDMIIIRMPKDFPPFPQKLKFREPQREERICLVTTNFQTKSMSSMVSDTSCTFPSGDGIFWKHWIQTKDGQCGSPLVSTRDGFIVGIHSASNFTNTNNYFTSVPKNFMELLTNQEAQQWVSGWRLNADSVLWGGHKVFMVKPEEPFQPVKEATQL [G35F],0.0459,,,0.0559,0.0157,0.0505,,,,,,,,,0.0343,0.0398,,
MGESLFKGTRDYNPISSSICHLTNESDGHTTSLYGIGFGPFIITNKHLFRRNNGTLVVQSLHGVFKVKDTTTLQQHLVDGRDMIIIRMPKDFPPFPQKLKFREPQREERICLVTTNFQTKSMSSMVSDTSCTFPSGDGIFWKHWIQTKDGQCGSPLVSTRDGFIVGIHSASNFTNTNNYFTSVPKNFMELLTNQEAQQWVSGWRLNADSVLWGGHKVFMVKPEEPFQPVKEATQL [P9T],0.0631,0.065,,,,,,0.0641,,,,0.0786,,,,,0.0461,
MGESLFKGDRDYNPISSSICHLTNESDGHTTSLYGIGFGPFIITNKHLFRRNNGTLVVQSLHGVFKVKDTTTLQQHLVDGRDMIIIRMPKDFPPFPQKLKFREPQREERICLVTTNFQTKSMSSMVSDTSCTFPSGDGIFWKHWIQTKDGQCGSPLVSTRDGFIVGIHSASNFTNTNNYFTSVPKNFMELLTNQEAQQWVSGWRLNADSVLWGGHKVFMVKPEEPFQPVKEATQL [P9D],0.0664,,0.0658,,,,,,0.0621,0.0819,0.0719,,,0.0659,,,0.0783,
MGESLFKGPRDYNPISSSICHLTNESDGHTTSLYGIGFGPFIITNKHLFRRNNGTLVVQSLHGVFKVKDTTTLQQHLVDGRDMIIIMMPKDFPPFPQKLKFREPQREERICLVTTNFQTKSMSSMVSDTSCTFPSGDGIFWKHWIQTKDGQCGSPLVSTRDGFIVGIHSASNFTNTNNYFTSVPKNFMELLTNQEAQQWVSGWRLNADSVLWGGHKVFMVKPEEPFQPVKEATQL [R87M],0.0799,,,,,,0.0558,0.0368,0.053,,,,0.0881,0.0477,,0.101,,
MGESLFKGPRDYNPISSSIIHLTNESDGHTTSLYGIGFGPFIITNKHLFRRNNGTLVVQSLHGVFKVKDTTTLQQHLVDGRDMIIIRMPKDFPPFPQKLKFREPQREERICLVTTNFQTKSMSSMVSDTSCTFPSGDGIFWKHWIQTKDGQCGSPLVSTRDGFIVGIHSASNFTNTNNYFTSVPKNFMELLTNQEAQQWVSGWRLNADSVLWGGHKVFMVKPEEPFQPVKEATQL [C20I],0.0704,0.0671,,0.0562,0.0312,0.061,0.0571,0.0533,0.0757,0.091,0.065,,0.0755,0.0598,0.0609,0.0926,0.055,
MGESLFKGPRDYNPISSSICHLTNESDGHTTSLYGIGFGPFIITNKHLFRRNNGTLVVQSLHGVFKVKDTTTLQQHLVDGRDMLIIRMPKDFPPFPQKLKFREPQREERICLVTTNFQTKSMSSMVSDTSCTFPSGDGIFWKHWIQTKDGQCGSPLVSTRDGFIVGIHSASNFTNTNNYFTSVPKNFMELLTNQEAQQWVSGWRLNADSVLWGGHKVFMVKPEEPFQPVKEATQL [I84L],0.0663,0.053,0.0684,0.0632,0.0687,0.0261,0.0703,0.063,,,,0.0998,0.0927,0.0625,0.0572,0.0336,0.0713,0.0728
MGESLFKGPRDYNPISSSICHLTNESDGHTTSLYGIGFGPFIITNKHLFRRNNGTNVVQSLHGVFKVKDTTTLQQHLVDGRDMIIIRMPKDFPPFPQKLKFREPQREERICLVTTNFQTKSMSSMVSDTSCTFPSGDGIFWKHWIQTKDGQCGSPLVSTRDGFIVGIHSASNFTNTNNYFTSVPKNFMELLTNQEAQQWVSGWRLNADSVLWGGHKVFMVKPEEPFQPVKEATQL [L56N],0.0478,0.04,0.055,,,0.0337,0.0415,0.0388,0.0486,0.0598,,0.0531,,0.03,,,0.0509,0.0373
MGESLFKGPRDYNPISSSICHLTNESDGHTTSLYGIGFGPFIITNKHLFRRNNGTLVVQSLHGVFKVKDTTTLQQHLVDGRDMIEIRMPKDFPPFPQKLKFREPQREERICLVTTNFQTKSMSSMVSDTSCTFPSGDGIFWKHWIQTKDGQCGSPLVSTRDGFIVGIHSASNFTNTNNYFTSVPKNFMELLTNQEAQQWVSGWRLNADSVLWGGHKVFMVKPEEPFQPVKEATQL [I85E],0.0327,0.0467,,0.0472,0.0656,0.0275,,,,0.0299,,,,0.0534,,,,
MGESLFKGPRDYNPISSSICHLTNESDGHTTSLYGIGFGPFIITNKHLFRRNNGTLVVQSLHGVFKVKDTTTLQQHLVDGRDMIQIRMPKDFPPFPQKLKFREPQREERICLVTTNFQTKSMSSMVSDTSCTFPSGDGIFWKHWIQTKDGQCGSPLVSTRDGFIVGIHSASNFTNTNNYFTSVPKNFMELLTNQEAQQWVSGWRLNADSVLWGGHKVFMVKPEEPFQPVKEATQL [I85Q],0.0575,,,,,0.0528,0.045,0.0619,0.0544,,0.0509,0.0499,,0.0676,0.0385,,,0.0575
MGESLFKGPRDYNPISSSICHLTNESDGHTTSLYGIGFGPFIITNKHLFRRNNGTLVVQSLHGVFKVKDTTTLQQHLVDGRDMIIIRMPKDFPPFDQKLKFREPQREERICLVTTNFQTKSMSSMVSDTSCTFPSGDGIFWKHWIQTKDGQCGSPLVSTRDGFIVGIHSASNFTNTNNYFTSVPKNFMELLTNQEAQQWVSGWRLNADSVLWGGHKVFMVKPEEPFQPVKEATQL [P96D],0.0663,0.0621,0.0526,,,0.0601,,0.143,0.0404,0.085,,,,0.0567,,,,0.0535
MGESLFKGPRDYNPISSSICHLTNESDGHTTSLYGIGSGPFIITNKHLFRRNNGTLVVQSLHGVFKVKDTTTLQQHLVDGRDMIIIRMPKDFPPFPQKLKFREPQREERICLVTTNFQTKSMSSMVSDTSCTFPSGDGIFWKHWIQTKDGQCGSPLVSTRDGFIVGIHSASNFTNTNNYFTSVPKNFMELLTNQEAQQWVSGWRLNADSVLWGGHKVFMVKPEEPFQPVKEATQL [F38S],0.0645,0.0617,0.0547,0.043,0.0528,,,0.0561,0.0534,0.0647,0.0512,0.08,,0.0566,0.0367,0.0501,0.0634,
MGESLFKGPRDYNPISSSICHLTNESHGHTTSLYGIGFGPFIITNKHLFRRNNGTLVVQSLHGVFKVKDTTTLQQHLVDGRDMIIIRMPKDFPPFPQKLKFREPQREERICLVTTNFQTKSMSSMVSDTSCTFPSGDGIFWKHWIQTKDGQCGSPLVSTRDGFIVGIHSASNFTNTNNYFTSVPKNFMELLTNQEAQQWVSGWRLNADSVLWGGHKVFMVKPEEPFQPVKEATQL [D27H],0.0807,0.0636,0.0538,,,,0.0556,0.0538,0.0676,,,,,0.0636,,0.0574,,
MGESLFKGPRDYNPISSDICHLTNESDGHTTSLYGIGFGPFIITNKHLFRRNNGTLVVQSLHGVFKVKDTTTLQQHLVDGRDMIIIRMPKDFPPFPQKLKFREPQREERICLVTTNFQTKSMSSMVSDTSCTFPSGDGIFWKHWIQTKDGQCGSPLVSTRDGFIVGIHSASNFTNTNNYFTSVPKNFMELLTNQEAQQWVSGWRLNADSVLWGGHKVFMVKPEEPFQPVKEATQL [S18D],0.057,,,,,,,0.0495,0.044,0.063,0.0737,0.105,0.0751,0.0509,,0.0618,,
MGESLFKGPRDYNPISSSICHLTNESDGHTTSLYGIGFGPFIITNKHLFRRNNGTLVVQSLQGVFKVKDTTTLQQHLVDGRDMIIIRMPKDFPPFPQKLKFREPQREERICLVTTNFQTKSMSSMVSDTSCTFPSGDGIFWKHWIQTKDGQCGSPLVSTRDGFIVGIHSASNFTNTNNYFTSVPKNFMELLTNQEAQQWVSGWRLNADSVLWGGHKVFMVKPEEPFQPVKEATQL [H62Q],0.0598,0.0636,0.0622,0.0638,,0.06,0.0575,0.0532,,,,,,,,,0.0497,
MGESLFKGPRDYNPISSSICHLTNESDGHTTSLYGIGFGPFIITNKHLFRRNNGTLVVQSLHGVFKVKDTTTLQQHLVDGRDMIIIRMPKDFPHFPQKLKFREPQREERICLVTTNFQTKSMSSMVSDTSCTFPSGDGIFWKHWIQTKDGQCGSPLVSTRDGFIVGIHSASNFTNTNNYFTSVPKNFMELLTNQEAQQWVSGWRLNADSVLWGGHKVFMVKPEEPFQPVKEATQL [P94H],0.0702,,0.0706,0.0479,0.0537,,,0.105,,,,,0.0951,,,,0.0619,0.0574
MGESLFFGPRDYNPISSSICHLTNESDGHTTSLYGIGFGPFIITNKHLFRRNNGTLVVQSLHGVFKVKDTTTLQQHLVDGRDMIIIRMPKDFPPFPQKLKFREPQREERICLVTTNFQTKSMSSMVSDTSCTFPSGDGIFWKHWIQTKDGQCGSPLVSTRDGFIVGIHSASNFTNTNNYFTSVPKNFMELLTNQEAQQWVSGWRLNADSVLWGGHKVFMVKPEEPFQPVKEATQL [K7F],0.0709,,,0.069,,0.0622,,0.0747,,0.0613,,,,,,,0.0614,0.0745
MGESLFKGPRDYNPISSSICHLTNESDGHTTSLYGIGFGPFIITNKHLFRRNPGTLVVQSLHGVFKVKDTTTLQQHLVDGRDMIIIRMPKDFPPFPQKLKFREPQREERICLVTTNFQTKSMSSMVSDTSCTFPSGDGIFWKHWIQTKDGQCGSPLVSTRDGFIVGIHSASNFTNTNNYFTSVPKNFMELLTNQEAQQWVSGWRLNADSVLWGGHKVFMVKPEEPFQPVKEATQL [N53P],0.0473,0.0622,0.0607,0.0509,,,,0.0673,0.0577,,0.0555,0.0896,0.0658,0.0643,,0.0642,0.0581,0.0314
